Reference: PubChem BioAssay AID1476 (National Center for Advancing Translational Sciences (NCATS), 2009)
Among all 200,000 compounds or so, about 4,500 (2.2%) were called active. This list was built around the results that the source calls inconclusive (neither active nor inactive); the mix of calls is not that of the screen. The call rests on the fitted dose curve; in most records, active means well fitted inhibition curve with a large enough effect; inconclusive means small, poorly fitted or top-dose-only effect, or effect the other way; inactive means flat fitted curve, though single readings scatter. Potencies of inconclusive entries are doubtful fits and often do not repeat.

target: Cruzipain (Trypanosoma cruzi) (UniProt P25779); assay: qHTS Assay for Promiscuous and Specific Inhibitors of Cruzain (without detergent); settings: purified cruzain, Z-FR-AMC fluorescence, no detergent; further: nearly all actives have a fitted effect of over 40% in size;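 on max response, negative = inhibition: plate controls were enzyme without inhibitor for no effect and buffer without enzyme for full effect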
In short: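 Detergent-free condition (0.00005% Triton X-100) in acetate buffer pH 5.5 with DTT. 1.5 nM enzyme and compound were pre-mixed 15 min, then 2 uM Z-FR-AMC substrate added; reaction progress from fluorescence change between first and third reads (60 s).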
Potency means the concentration at half of the fitted maximal effect; tags describe the fitted curve by direction and shape.

Sequence of UniProt P25779 (P25779 whole entry, looked up): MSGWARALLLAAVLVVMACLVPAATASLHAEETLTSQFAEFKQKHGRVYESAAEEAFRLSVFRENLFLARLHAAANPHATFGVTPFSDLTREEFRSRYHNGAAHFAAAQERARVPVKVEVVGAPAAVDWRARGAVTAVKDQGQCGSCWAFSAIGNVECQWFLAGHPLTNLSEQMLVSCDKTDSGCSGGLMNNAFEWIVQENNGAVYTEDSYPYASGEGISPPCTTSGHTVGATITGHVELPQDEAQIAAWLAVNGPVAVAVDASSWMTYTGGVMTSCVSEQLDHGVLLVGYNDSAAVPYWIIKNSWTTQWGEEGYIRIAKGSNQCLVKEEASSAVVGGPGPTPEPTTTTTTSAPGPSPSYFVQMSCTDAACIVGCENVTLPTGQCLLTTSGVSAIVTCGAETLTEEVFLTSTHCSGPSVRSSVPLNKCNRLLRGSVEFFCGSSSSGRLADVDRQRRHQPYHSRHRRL

| Structure (SMILES) | max response, negative = inhibition | Potency |
| --- | --- | --- |
| O=[As](O)(O)c1ccc2nc3cc([As](=O)(O)O)ccc3nc2c1 | inactive: 5.47% | – |
| Cc1cccc(-n2nnc(-c3nc(-c4cccs4)no3)c2N)c1 | inactive: -1.44% | – |
| CCOC(=O)C(Oc1ccc2c(-c3ccccc3)cc(=O)oc2c1C)c1ccccc1 (centres undefined) | – | inconclusive: 39.8 µM [inhibitor, single point] |
| Cc1cc(N2CCC(C)CC2)nc2ccc(NC(=O)CCC(=O)N3CCN(c4ccccc4F)CC3)cc12 | inactive: -7.17% | – |
| COc1ccc(OC)c(NC(=O)CC2SC(=Nc3ccccc3)N(CCc3ccccn3)C2=O)c1 (centres undefined) | – | inconclusive: 31.6 µM [activator, single point] |
| CC1(C)CC(=O)C(C=NCCN2CCN(C(=O)c3ccc(Br)cc3)CC2)=C(O)C1 | – | inconclusive: 39.8 µM [activator, single point] |
| NC(=O)/C=C\c1cn(-c2ccccc2)nc1-c1ccc2c(c1)OCCO2 | – | inconclusive: 39.8 µM [activator, single point] |
| CC(=O)O[C@H]1C[C@@H](O[C@@H]2[C@H](C)O[C@H](O[C@@H]3[C@H](C)O[C@H](O[C@@H]4CC[C@@]5(C)[C@@H](CC[C@]6(C)[C@]5(C)C[C@H](O)[C@]5(C)[C@@H](C7=CC(=O)OC7)CC[C@@]56O)C4)C[C@@H]3O)C[C@@H]2O)O[C@@H](C)[C@H]1O[C@H]1O[C@@H](CO)[C@@H](O)[C@@H](O)[C@@H]1O | – | inconclusive: 12.6 µM [activator, partial curve] |
| O=C(N/N=C/c1cccs1)c1cccc2cc[nH]c12 | – | inconclusive: 12.6 µM [inhibitor, single point] |
| Cc1nc(-c2ccc(C)c(S(=O)(=O)N3CCC(C(=O)NCc4ccc(F)cc4)CC3)c2)no1 | inactive: -3.47% | – |
| O=C(Nc1ccc(Br)cc1)c1ccc(N2C(=O)C3CC=CCC3C2=O)cc1 (centres undefined) | – | inconclusive: 39.8 µM [inhibitor, single point] |
| O=C(NCc1ccccc1Cl)c1ccc2c(c1)N(Cc1ccccc1)CCS2 | – | inconclusive: 39.8 µM [inhibitor, single point] |
| O=C(NC1CCCCCC1)c1ccc(CS(=O)c2cccc(Cl)c2)o1 (centres undefined) | – | inconclusive: 31.6 µM [inhibitor, single point] |
| CCC(C)NC(=O)c1cn(CC)c2ccc(S(=O)(=O)N3CCc4ccccc4C3)cc2c1=O (centres undefined) | – | inconclusive: 31.6 µM [activator, single point] |
| CCCCCCc1cc2cc(S(=O)(=O)c3ccc(F)cc3)c(=O)oc2cc1O | – | active: 25.1 µM |
| COc1ccc(-c2nnn(CC(=O)N(CC(=O)NCCC(C)C)c3ccccc3)n2)cc1OC | – | inconclusive: 31.6 µM [activator, single point] |
| c1ccc(C(c2cccc3c2ccc2ccccc23)[C@H](c2ccccc2)c2cccc3c2ccc2ccccc23)cc1 (some centres undefined) | – | active: 3.98 µM |
| O=c1c2ccccc2[nH]c2ccccc12 | – | inconclusive: 31.6 µM [inhibitor, single point] |
| Cc1cccc(NC(=O)CSc2nnc([C@@H](N)Cc3c[nH]c4ccccc34)o2)c1C | – | active: 12.6 µM |
| CCc1nc(Nc2ccc(OC)c(OC)c2)c2nnn(Cc3ccccc3Cl)c2n1 | – | inconclusive: 25.1 µM [activator, single point] |
| CCOc1ccc(OCC)c(NC(=O)c2cc(-c3cccs3)nc3ccccc23)c1 | inactive: -1.4% | – |
| CCCCOC(=O)c1ccc(Nc2nc3ccc(C(=O)c4ccccc4)cc3n3cnnc23)cc1 | inactive: -2.98% | – |

| Structure (SMILES) | max response, negative = inhibition | Potency |
| --- | --- | --- |
| CC(C)N1C(=O)/C(=C/c2nc3ccccc3c(=O)n2-c2ccccc2)c2ccccc21 | – | inconclusive: 39.8 µM [activator, single point] |
| COc1ccc(CNC(=O)COC(=O)C2CCN(S(=O)(=O)c3ccccc3C(F)(F)F)CC2)cc1 | – | inconclusive: 39.8 µM [activator, single point] |
| COCCn1c(SCc2ccc(C(=O)OC)o2)nc2cc(Cl)ccc2c1=O | – | inconclusive: 31.6 µM [activator, single point] |
| Cc1ccc(Cl)cc1Nc1nn2c(=O)c3ccc(C(=O)NC4CCCCC4)cc3nc2s1 | inactive: -11.3% | – |
| COc1ccc(-c2cn3nc(SCC(=O)Nc4cc(C)cc(C)c4)ccc3n2)cc1 | inactive: -9.26% | – |
| CCc1cccc(C)c1NC(=O)Cn1ncc2c3ccccc3n(Cc3ccccc3)c2c1=O | inactive: 0.774% | – |
| CCN(CC)C(=O)C1CCCN(c2ncnc3c2c(-c2ccccc2)cn3-c2cccc(C)c2)C1 (centres undefined) | – | inconclusive: 31.6 µM [activator, single point] |
| COc1ccc(C(=O)NC(=S)Nc2ccc(N3CCOCC3)c(Cl)c2)cc1[N+](=O)[O-] | – | inconclusive: 39.8 µM [inhibitor, single point] |
| COC1OC2COC(c3ccccc3)OC2C(O)C1O (centres undefined) | inactive: 6.49% | – |
| O=C(CN1C(=O)CSc2ccc(S(=O)(=O)N3CCCC3)cc21)NCc1ccc(F)cc1Cl | inactive: -7.06% | – |
| O=C(c1cc2cc3ccc(Cl)cc3nc2o1)N1CCN(c2cccc(Cl)c2)CC1 | inactive: -0.935% | – |
| O=c1c2nncn2ccn1-c1ccc(F)c(F)c1 | inactive: 15.6% | – |
| O=C(O)c1ccc2c(c1)-c1nc3ccccc3n1C2=O | inactive: -2.24% | – |
| Cc1ccc(-c2ccc(C(=O)NCc3ccc(Cl)cc3)o2)c2ccccc12 | – | active: 25.1 µM |
| Cc1sc2ncn(CC(=O)N3CCN(c4ccccc4)CC3)c(=O)c2c1S(=O)(=O)N1CCC(C)CC1 | – | inconclusive: 25.1 µM [activator, single point] |
| COc1ncnc2c1oc1nc(CC(C)C)c3c(c12)CC(C)(C)OC3 | – | inconclusive: 39.8 µM [activator, single point] |
| Cc1nc(NC(=S)NC(=O)COc2ccccc2Cl)ccc1Br | – | inconclusive: 39.8 µM [inhibitor, single point] |
| CCSC1(SCC)N=C(N)C2(C#N)C(c3ccccc3)NC(C)=C(C)C12C#N (centres undefined) | – | inconclusive: 31.6 µM [inhibitor, single point] |
| COc1ccc(-c2c(C)nn3c(N4CCN(c5cc(Cl)ccc5C)CC4)cc(C)nc23)cc1OC | inactive: -3.81% | – |
| Cc1ccc(C(=O)Nc2oc(-c3ccccc3)cc2C#N)cc1 | – | inconclusive: 39.8 µM [inhibitor, single point] |
| CCc1ccc(NC(=O)CSc2nc3cc(C(=O)OC)ccc3c(=O)n2Cc2ccco2)cc1 | – | active: 5.01 µM |
| CC(=O)Nc1ccccc1-c1nc2ccc(C(=O)N3CCN(c4cc(C)ccc4C)CC3)cc2[nH]c1=O | – | inconclusive: 25.1 µM [activator, partial curve] |

| Structure (SMILES) | max response, negative = inhibition | Potency |
| --- | --- | --- |
| CNc1sc(C(=O)c2cccs2)c(N)c1-c1nc2ccccc2s1 | – | inconclusive: 31.6 µM [inhibitor, single point] |
| COc1ccccc1CNC(=O)CSc1cc(C)[nH]c(=O)n1 | – | inconclusive: 0.0631 µM [activator, full curve, poor fit] |
| O=C(Cn1c(=O)n(-c2ccccc2Cl)c(=O)c2sc3ccccc3c21)NC1CCCC1 | inactive: 13.4% | – |
| CC(=O)c1sc(N/N=C\c2ccc(Br)cc2)nc1C | – | inconclusive: 39.8 µM [activator, single point] |
| CCNc1ncc2nc(-c3cc(F)cc(F)c3)c(=O)n(C)c2n1 | – | inconclusive: 12.6 µM [activator, partial curve] |
| Cc1cn2c(=O)c(S(=O)(=O)NCc3ccc(F)cc3)c(C)nc2s1 | inactive: 0.383% | – |
| CCOC(=O)N1CCN(C(=O)CN(c2cccc(C)c2)S(=O)(=O)c2ccc(C)cc2)CC1 | – | inconclusive: 25.1 µM [activator, single point] |
| CCOc1ccccc1NC(=O)Cn1nc(N2CCN(c3ccccc3)CC2)ccc1=O | – | inconclusive: 31.6 µM [activator, single point] |
| CC(C)c1ccc(/C=C/C(=O)Nc2nncs2)cc1 | – | inconclusive: 31.6 µM [inhibitor, single point] |
| COCCCNc1oc(-c2ccccc2OC)nc1C#N | – | inconclusive: 20 µM [activator, single point] |
| O=C1NCCN1Cc1cccc(Cl)c1 | – | active: 12.6 µM |
| Cc1ccc2[nH]c(=O)c(CN(Cc3cccs3)S(=O)(=O)c3ccc4c(c3)OCCO4)cc2c1 | – | inconclusive: 31.6 µM [inhibitor, single point] |
| Cc1cc(C(=O)CN2C(=O)NC(c3ccccc3)(c3ccccc3)C2=O)c(C)n1Cc1ccco1 | – | inconclusive: 39.8 µM [inhibitor, single point] |
| O=C(Cc1ccc(-c2ccccc2)cc1)NC(c1ccccc1)c1ccccc1 | – | active: 25.1 µM |
| CCCN1C(=O)SC(CC(=O)Nc2cccc3ccccc23)C1=O (centres undefined) | – | inconclusive: 39.8 µM [inhibitor, single point] |
| Cc1cccc(NC(=O)Nc2nnc(N3CCCC3)s2)c1 | – | inconclusive: 39.8 µM [activator, single point] |
| CCCCn1c(CNC(=O)C23CC4CC(CC(C4)C2)C3)nnc1SCC(=O)Nc1ccc(F)cc1 | – | inconclusive: 25.1 µM [activator, single point] |
| O=C(c1cnccn1)N1CCC2(CC1)CN(c1cccc(-c3ccccc3)c1)C2 | – | inconclusive: 12.6 µM [activator, partial curve] |
| CCOc1ccc2nc(N3CCCC(C(=O)NCCc4ccc(C)cc4)C3)sc2c1 (centres undefined) | inactive: -17.2% | – |
| COc1ccc2c(c1)C(c1ccccc1OC)CC(=O)O2 (centres undefined) | – | inconclusive: 56.2 µM [activator, single point] |
